Laboratory results from article PMC5695791.
Where a chain is given by its changes, count along the chain named. Numbers in names are those of the source. These are yes or no findings as the source states them, for the method shown. For some of these results: In cells and extracts the contact can be indirect. Some results given as binding are weak or reduced against the parent protein; the word gives no strength. For some of these results: Tags and fused reporters may be left off the sequences shown. Each block holds one binder with its values, some of them ahead of it.

Legend:
[1] = target: T1, endogenous signal peptide peptidase of HEK293 cells (human (endogenous in HEK293)) (UniProt Q8TCT9); test: co-IP; fluorescent-protein-tagged partner overexpressed in HEK293 cells, normoxia or 48 h hypoxia (1% O2); endogenous SPP precipitated with rabbit anti-SPP and Protein A Sepharose at 4°C, washed with PBS; blot with anti-GFP
T1 sequence: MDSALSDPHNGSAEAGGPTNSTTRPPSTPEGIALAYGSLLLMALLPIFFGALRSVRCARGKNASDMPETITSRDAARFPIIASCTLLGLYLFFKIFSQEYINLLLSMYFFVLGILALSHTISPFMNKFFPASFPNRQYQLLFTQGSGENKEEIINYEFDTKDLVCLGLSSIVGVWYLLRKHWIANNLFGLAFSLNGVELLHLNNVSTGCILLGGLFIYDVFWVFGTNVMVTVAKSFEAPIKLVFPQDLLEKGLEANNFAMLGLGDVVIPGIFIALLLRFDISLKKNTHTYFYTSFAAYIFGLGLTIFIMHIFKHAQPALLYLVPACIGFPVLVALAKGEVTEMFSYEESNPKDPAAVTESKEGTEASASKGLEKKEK

[2] = target: T2, HA-tagged signal peptide peptidase, catalytically inactive mutant D219A (UniProt Q8TCT9); test: co-IP; HA-SPP variant and fluorescent-protein-tagged partner co-expressed in HEK293 cells under normoxia; cell extract (50 mM TEA, 1 mM EDTA, pH 7.4) precipitated with rabbit anti-HA and Protein A Sepharose at 4°C, washed with PBS; blot with anti-GFP; IgG control-antibody gave no signal
T2 sequence: T1 sequence with D219A

[3] = target: T3, HA-tagged signal peptide peptidase, wild type (catalytically active) (UniProt Q8TCT9); test: as above
T3 sequence: T1 sequence

[4] = target: T3, HA-tagged signal peptide peptidase, wild type (catalytically active); test: co-IP; YFP-HO-1-CFP co-expressed with HA-SPP in HEK293 cells; cell extracts made as described by Schrul et al.; precipitated with HA-antibody, blot with GFP-antibody
[5] = target: T4, HA-tagged signal peptide peptidase, wild type (catalytically active), Q8TCT9; test: SDS-PAGE and Western blot of uncooked cell extracts; HEK293 cell extracts in SDS sample-buffer not cooked to keep SPP homodimers at 95 kDa intact; blot with anti-HA or anti-SPP; settings: remark: other sources report otherwise
T4 chain: T1 sequence

[6] = target: T5, endogenous signal peptide peptidase of HEK293 cells (human (endogenous in HEK293)), Q8TCT9; test: as above; settings: remark: other sources report otherwise
T5 chain: T1 sequence

[7] = target: T2, HA-tagged signal peptide peptidase, catalytically inactive mutant D219A; test: as above

B1: GFP-tagged wild type heme oxygenase-1 (enzyme, UniProt P09601 1-288)
chain: MERPQPDSMPQDLSEALKEATKEVHTQAENAEFMRNFQKGQVTRDGFKLVMASLYHIYVALEEEIERNKESPVFAPVYFPEELHRKAALEQDLAFWYGPRWQEVIPYTPAMQRYVKRLHEVGRTEPELLVAHAYTRYLGDLSGGQVLKKIAQKALDLPSSGEGLAFFTFPNIASATKFKQLYRSRMNSLEMTPAVRQRVIEEAKTAFLLNIQLFEELQELLTHDTKDQSPSRAPGLRQRASNKVQDSAPVETPRGKPPLNTRSQAPLLRWVLTLSFLVATVAVGLYAM
binding [1]: binds
binding [2]: binds

B2: GFP-tagged HO-1 anchor mutant SF275/276AL (enzyme, UniProt P09601 1-288)
chain: B1 chain with S275A, F276L
binding [3]: binds weakly

B6: HA-tagged signal peptide peptidase, catalytically inactive mutant D219A (enzyme, UniProt Q8TCT9 1-377)
chain: T1 sequence with D219A
binding [7]: binds

B7: GFP-tagged wild type heme oxygenase-2 (enzyme, UniProt P30519 1-316)
chain: MSAEVETSEGVDESEKKNSGALEKENQMRMADLSELLKEGTKEAHDRAENTQFVKDFLKGNIKKELFKLATTALYFTYSALEEEMERNKDHPAFAPLYFPMELHRKEALTKDMEYFFGENWEEQVQCPKAAQKYVERIHYIGQNEPELLVAHAYTRYMGDLSGGQVLKKVAQRALKLPSTGEGTQFYLFENVDNAQQFKQLYRARMNALDLNMKTKERIVEEANKAFEYNMQIFNELDQAGSTLARETLEDGFPVHDGKGDMRKCPFYAAEQDKGALEGSSCPFRTAMAVLRKPSLQFILAAGVALAAGLLAWYYM
binding [1]: binds
binding [3]: binds
binding [2]: binds

Second part, the binder after the results:

binding [4]: binds
B3: double fluorescence-tagged HO-1 (YFP-HO-1-CFP) (enzyme, UniProt P09601 1-288)
chain: B1 chain

binding [5]: binds
B4: HA-tagged signal peptide peptidase, wild type (catalytically active), Q8TCT9 1-377 (enzyme)
chain: T1 sequence

binding [6]: binds
B5: endogenous signal peptide peptidase of HEK293 cells, Q8TCT9 1-377 (enzyme)
chain: T1 sequence

binding [1]: binds
binding [3]: binds
binding [2]: binds
B8: fluorescent protein fused cytochrome P450 reductase (enzyme, UniProt P16435 1-677)
chain: MGDSHVDTSSTVSEAVAEEVSLFSMTDMILFSLIVGLLTYWFLFRKKKEEVPEFTKIQTLTSSVRESSFVEKMKKTGRNIIVFYGSQTGTAEEFANRLSKDAHRYGMRGMSADPEEYDLADLSSLPEIDNALVVFCMATYGEGDPTDNAQDFYDWLQETDVDLSGVKFAVFGLGNKTYEHFNAMGKYVDKRLEQLGAQRIFELGLGDDDGNLEEDFITWREQFWPAVCEHFGVEATGEESSIRQYELVVHTDIDAAKVYMGEMGRLKSYENQKPPFDAKNPFLAAVTTNRKLNQGTERHLMHLELDISDSKIRYESGDHVAVYPANDSALVNQLGKILGADLDVVMSLNNLDEESNKKHPFPCPTSYRTALTYYLDITNPPRTNVLYELAQYASEPSEQELLRKMASSSGEGKELYLSWVVEARRHILAILQDCPSLRPPIDHLCELLPRLQARYYSIASSSKVHPNSVHICAVVVEYETKAGRINKGVATNWLRAKEPAGENGGRALVPMFVRKSQFRLPFKATTPVIMVGPGTGVAPFIGFIQERAWLRQQGKEVGETLLYYGCRRSDEDYLYREELAQFHRDGALTQLNVAFSREQSHKVYVQHLLKQDREHLWKLIEGGAHIYVCGDARNMARDVQNTFYDIVAELGAMEHAQAVDYIKKLMTKGRYSLDVWS

binding [1]: no binding
binding [3]: no binding
binding [2]: no binding
B9: fluorescent protein fused biliverdin reductase (enzyme, UniProt P53004 3-296)
chain: AEPERKFGVVVVGVGRAGSVRMRDLRNPHPSSAFLNLIGFVSRRELGSIDGVQQISLEDALSSQEVEVAYICSESSSHEDYIRQFLNAGKHVLVEYPMTLSLAAAQELWELAEQKGKVLHEEHVELLMEEFAFLKKEVVGKDLLKGSLLFTAGPLEEERFGFPAFSGISRLTWLVSLFGELSLVSATLEERKEDQYMKMTVCLETEKKSPLSWIEEKGPGLKRNRYLSFHFKSGSLENVPNVGVNKNIFLKDQNIFVQKLLGQFSEKELAAEKKRILHCLGLAEEIQKYCCSRK
